# Data reported in the supplement of paper PMC11417369.
# ± gives the standard deviation of the averaged measurements. The list shows a part of the results.
# Tested on: PfAP2-I AP2 domain 3 (GST-tagged)
# Experiment: gcPBM binding intensity (ln(normalized median fluorescence intensity)); higher = stronger DNA binding
# In short: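 The binding buffer was 1× PBS containing 1% milk, 0.2 mg/ml BSA, 0.5% salmon testes DNA and 0.03% Triton X-100. In it, GST-tagged P. falciparum DNA-binding domains expressed in E. coli were applied for 1 h to an Agilent 4 × 180k array of primer-extended double-stranded 36-bp intergenic genomic probes plus negative controls. Binding intensity, read with Alexa488 anti-GST antibody and a 488 nm scan, is the highest Masliner-normalised natural-log median intensity across replicate spots of either probe orientation.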
row,Sequence,gcPBM binding intensity (ln)
1,TAGTTACTTCTTATATAAAATATGTATATAAAAATA [GTGCAC_negctrl_site190],7.57 ± 0.19
2,TCTCTCATTTATTTTTGTACTTAATCCAGCACGTTT [XGTACX_site1369],8.34 ± 0.68
3,ACATATTAATTATAAAGTACATATATATATATATAT [XGTACX_site4540],9.45 ± 0.6
4,TTGTTTGTTGTAACGTGTACAGATAAAAATAAAGGG [XGTACX_site375],8.62 ± 0.39
5,TTCATATTATAGTGCACACAAAAATATATATATGGT [CACACA_site2855],11.3 ± 0.43
6,TAATATCAATATAAAGTACACACTATAGTATGTATT [CACACA_site2280],7.7 ± 0.26
7,TATATATATATATATATACACACGTATATATATACA [CACACA_site4155],9.54 ± 0.77
8,ATATCTTTGCAAAGATGTACTTGTAAAAATATATGA [XGTACX_site768],8.09 ± 0.45
9,GACCCACTTTTCTGCACACATAAAAAATATATAAAT [CACACA_site4483],9.6 ± 0.15
10,TATAATAAAACTTTTACACACTTTAAAAAAAAAAAA [CACACA_site6392],7.86 ± 0.63
11,TAAAAGTAAAGACATGCATGCATTGGTATCTTTTAC [TGCATGCA_site665],7.62 ± 0.86
12,TTTATATTTAAATATATATGAGAAAACACAAAATAT [TGCATGCA_negctrl_site211],8.04 ± 0.45
13,TACATATTTATATACACACACACCCTAAAAATATAT [CACACA_site6861],8.13 ± 0.33
14,AAAAGAATTACTTTCACACATATATATCTGTAAATA [CACACA_site5798],7.51 ± 0.65
15,ATAATTTTTTTTTTTTTTTTTTGAAAGTAGCATATG [CACACA_negctrl_site732],7.51 ± 0.54
16,AATAATGAAGCTTATGCACACGTTCATTATTTATAT [CACACA_site5736],9.72 ± 0.47
17,TAACAAAACCTTATATGTACACACATATACATCACA [XGTACX_site6772],7.91 ± 0.33
18,TTAAAAATGAACATATGTACATATATATATATATAT [XGTACX_site7923],9.45 ± 0.46
19,TTATCATTTTAAATCACACACATATATATATATATA [CACACA_site2849],9.305 ± 0.078
20,ACTACAAGGCAATACAGTACATATAAATGTCATAAT [XGTACX_site8468],7.85 ± 0.45
21,AAAAAGGTTATTGGTACACACATATGTATTTATATA [CACACA_site4464],7.78 ± 0.49
22,TACCTTTTATTAATGTGTACCTAAAATATAATACTT [XGTACX_site192],7.86 ± 0.55

row,Sequence,gcPBM binding intensity (ln)
1,AAAATATAAAAAGTCACACATATATATATTTATTTA [CACACA_site4872],7.41 ± 0.52
2,TTGAATGAAAAAATTTGTACTCATATAAATAATTTA [XGTACX_site4628],7.5 ± 0.31
3,CAATAATTTTTTGTGGGTACAAATAATTTTTTAAAT [XGTACX_site2407],7.71 ± 0.38
4,AGGAGAAAAGATAAAGACTTCAAGAAAAAAAAATAA [TGCATGCA_negctrl_site258],7.45 ± 0.7
5,GATGCTAAAATTTATACACACAAAAAAAAAAAATTC [CACACA_site3284],7.96 ± 0.65
6,AAAAAAAAAAAATATACACACACACCGACACATAAA [CACACA_site9270],8.04 ± 0.42
7,TATTTTATGTAAATTGGTACACATATGTCAGTAAAA [XGTACX_site7111],8.04 ± 0.48
8,TTTCATATTTTGTCCTGTTTTTTTTTTTTTTTTCTT [CACACA_negctrl_site993],7.53 ± 0.59
9,TTTTGAATATTTGGTCGTACGTAAAAATAGATAATT [XGTACX_site5755],8.12 ± 0.44
10,ATATTTATGGAAAAAGAACACACAATCAAACAAAAA [CACACA_site9233],8.14 ± 0.54
11,CTTTTTTATATCTCTACACACATTTATAACCATTTG [CACACA_site4897],7.94 ± 0.65
12,ATACATTTATTGTATTGTACATAATATTATATATTC [XGTACX_site7115],7.76 ± 0.57
13,TATTTTAAAAAAAAAAGTACACATAATATATATAAC [XGTACX_site5416],8.06 ± 0.22
14,TAATATAATAGAAGTGTACACACATATTTATGGGTG [CACACA_site9023],8.12 ± 0.45
15,AATAATTTTTAAATATAAACATTTTTTTTTTTTTTT [GTGCAC_negctrl_site532],7.96 ± 0.64
16,ATTAAATGCACATATACACACACCCAATTTTAAGTT [CACACA_site3049],10.1 ± 0.45
17,ATATATATATATTCCACACACACACCCAAAAAAAAA [CACACA_site3649],9.43 ± 0.18
18,ACAAAATAAACCACGTGTACAAATTTATAATGTGTA [XGTACX_site1153],7.96 ± 0.42
19,ATAAAATATTAGACATTTATTAATATTACACATATC [XGTACX_negctrl_site364],7.5 ± 0.66
20,TTTTATTTTTTATTTGCACACAATATGTAAAAAAAT [CACACA_site2927],10.2 ± 0.53
21,TTATAATAAAGAGGAGTGCAAAAAAAAAAAAAAAAA,10.5 ± 0.45
22,AATCAAAATATATCTACACACATTTAAGTAACACAT [CACACA_site3482],7.84 ± 0.46

row,Sequence,gcPBM binding intensity (ln)
1,TAAATATCAAAACACACACACAAAAGTGAATAAATA [CACACA_site3762],7.62 ± 0.44
2,AAAAAAAAAAAAAACACACACACACCCACATATACA [CACACA_site2663],8.47 ± 0.56
3,TATAAGGTGTCCTATACACACTCCAATAAATATATA [CACACA_site2091],7.9 ± 0.31
4,TAAAGAGAAAAACATACACACACAACAAAATATGTA [CACACA_site8872],7.57 ± 0.5
5,AGGAACATAAGCAATGTATAAACATAAAACTATAAT [CACACA_negctrl_site1832],7.67 ± 0.64
6,TATTAATTAAACCATACACACATAACTTTTTTATAA [CACACA_site6526],7.67 ± 0.36
7,ATTTTTTTCTTAGGAGTGCACTTATATTTATTTTAT,10.8 ± 0.49
8,ACAAGGAATATATAAGATAATTTTAAATATAACACG [CACACA_negctrl_site1734],7.78 ± 0.56
9,ATATATATAATTTTTACACACGCAATAAATATATAT [CACACA_site218],8.01 ± 0.67
10,TATACATACATACATACACACACACCGATATATACA [CACACA_site8184],8.15 ± 0.35
11,TTCCAAAAAATTATTACACACATATGGGCACATATA [CACACA_site679],7.91 ± 0.45
12,ATTCTATAATATAAGAGTACTTATTTTTTTTAATTT [XGTACX_site7671],7.64 ± 0.48
13,TATAAAATTAAACAAAGTACTAGACATATATATAGA [XGTACX_site3247],7.74 ± 0.54
14,AATGTTATTTGTTTATCACACATTAGGATGTTTATA [CACACA_site5710],7.78 ± 0.74
15,ACGCTAATTATGTGCACACAAATTAAAGGTCTACAA [CACACA_site147],10.65 ± 0.057
16,TGTTTCTGCTCTGGACATTTTTAAAAAAGGGAAAGC [CACACA_negctrl_site1463],8.18 ± 0.4
17,ACAAAAAAACATGAAACACACACAAATATATATATA [CACACA_site8566],9.08 ± 0.13
18,TGCCTATTTTGGATGTGTACACATATATATATTTAT [XGTACX_site6741],8.22 ± 0.25
19,AAAAAAAAAAAAAACACACACACAAGAGTATATAAA [CACACA_site6580],8.21 ± 0.53
20,ATGAATTTATTACATTGTACATTTTTAAAAGGTTAC [XGTACX_site124],7.75 ± 0.42
21,TTATATATTTTTTTTTGTACATAGAAGAGGGAAAAA [XGTACX_site2178],8.08 ± 0.28
22,TACACGCTAAAATACACACACACACCCACATATATA [CACACA_site4153],8.04 ± 0.33

row,Sequence,gcPBM binding intensity (ln)
1,TTCCCTCCTCAAAATTGTACTAGAATAATAACATAA [XGTACX_site8765],7.79 ± 0.19
2,TTTTTTAAACATATTATGTGTATTACATAGTTATGC [XGTACX_negctrl_site596],7.65 ± 0.48
3,TTATAATATTATAAAATAACATTTATTAATTATTGG [CACACA_negctrl_site1794],7.39 ± 0.4
4,TTATTATATTAAAATTGTACTTGCTTTCAATATGAT [XGTACX_site5305],7.61 ± 0.28
5,TAAACGTTATATAGTGCATGTCATATTTTATTATAT [TGCATGCA_site935],8.37 ± 0.56
6,ACGATGCATTAATCTGCACACCACAACAAAACGTTT [CACACA_site899],9.47 ± 0.014
7,AATCATTTTATTATCCTAACAAAAAAAAAATATATT [CACACA_negctrl_site115],7.43 ± 0.41
8,ACAACGCGTTAAATGTGTACATATTTATAAGTATAT [XGTACX_site8777],7.91 ± 0.34
9,AGCTATGTATTCTACACACACATACAGACATATATA [CACACA_site3428],7.96 ± 0.67
10,TTTGCATTTCTTAATTGTACTTAAAAAAAAAATAAT [XGTACX_site758],7.88 ± 0.2
11,TATACCAATGAATGAGTGCAAAGAAGATAAGGAAAA,9.91 ± 0.23
12,AAGGTATTTATAACTACACACTTATTTATAACCTAA [CACACA_site6194],7.49 ± 0.56
13,AATAAAATGAAATGAAATAAAAAAAAAAAAAAAATG [TGCATGCA_negctrl_site305],7.69 ± 0.37
14,ACTTATTGTGGTTTTGCATGTAGCATTTTTACATAC [TGCATGCA_site247],8.62 ± 0.91
15,AAAAAAAAAAAAAAATTAAAGTAATGGAAAAAAAAA [CACACA_negctrl_site1666],7.79 ± 0.6
16,TATATTATAAACATATGTACATATGTATAAATACAT [XGTACX_site722],7.75 ± 0.35
17,AACATATATATATACACACACATATATATATGAAAT [CACACA_site279],7.74 ± 0.3
18,ATTATTAATATTATATGTACGCACTATATCAAGGCT [XGTACX_site6468],8.82 ± 0.028
19,ATATTATAATTAAAACGTACGTATTTATGAATTCAT [XGTACX_site1047],7.91 ± 0.38
20,TATTAATTAAACCATACACACATAATTTTTTTATAA [CACACA_site843],7.64 ± 0.35
21,TACATAAATTAAAACACACACACACTAAAAAAAAAA [CACACA_site7130],8.31 ± 0.38
22,GTTAATATTTACTACACACACTTAAAATATGTATAT [CACACA_site4194],7.92 ± 0.6
